In test [1] the target is T1, GST-FBXL5 (pGEX-6P-1) (UniProt Q9UKA1).
T1 sequence: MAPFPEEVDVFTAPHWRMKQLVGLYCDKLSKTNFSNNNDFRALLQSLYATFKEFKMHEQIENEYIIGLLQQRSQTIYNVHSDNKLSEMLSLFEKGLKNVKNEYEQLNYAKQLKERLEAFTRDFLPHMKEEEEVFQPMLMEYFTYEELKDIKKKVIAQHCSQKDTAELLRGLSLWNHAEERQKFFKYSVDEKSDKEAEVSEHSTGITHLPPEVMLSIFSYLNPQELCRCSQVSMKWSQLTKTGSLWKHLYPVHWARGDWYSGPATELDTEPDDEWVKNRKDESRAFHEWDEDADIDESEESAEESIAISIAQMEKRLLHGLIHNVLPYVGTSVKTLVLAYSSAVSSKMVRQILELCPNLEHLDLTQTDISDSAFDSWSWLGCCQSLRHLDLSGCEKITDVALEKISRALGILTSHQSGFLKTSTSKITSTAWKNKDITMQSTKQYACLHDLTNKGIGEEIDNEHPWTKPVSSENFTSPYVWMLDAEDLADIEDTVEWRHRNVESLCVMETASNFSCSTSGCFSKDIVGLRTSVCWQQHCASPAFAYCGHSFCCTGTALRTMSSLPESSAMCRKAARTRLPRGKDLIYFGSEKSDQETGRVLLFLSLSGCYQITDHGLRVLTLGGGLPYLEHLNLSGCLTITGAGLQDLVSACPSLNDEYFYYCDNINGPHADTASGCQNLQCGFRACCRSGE
The experiment in a line: pull-down; GST or GST-FBXL5 protein on glutathione-sepharose with extracts from transfected HEK293T cells; western blot; only the target purified.

Protein sequences, listed by entry. Tags and fused reporters are not part of them.
UniProt P63208: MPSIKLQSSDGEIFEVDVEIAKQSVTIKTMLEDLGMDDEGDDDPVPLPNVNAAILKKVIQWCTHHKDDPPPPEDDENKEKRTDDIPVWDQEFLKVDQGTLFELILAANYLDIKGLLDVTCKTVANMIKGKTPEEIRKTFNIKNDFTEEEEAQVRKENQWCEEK
UniProt Q15672: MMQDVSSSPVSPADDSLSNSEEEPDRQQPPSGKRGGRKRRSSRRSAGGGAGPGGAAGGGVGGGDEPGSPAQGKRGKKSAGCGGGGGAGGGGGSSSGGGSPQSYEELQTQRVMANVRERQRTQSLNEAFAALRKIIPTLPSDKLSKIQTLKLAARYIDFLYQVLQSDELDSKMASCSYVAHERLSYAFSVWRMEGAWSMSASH
UniProt O95863: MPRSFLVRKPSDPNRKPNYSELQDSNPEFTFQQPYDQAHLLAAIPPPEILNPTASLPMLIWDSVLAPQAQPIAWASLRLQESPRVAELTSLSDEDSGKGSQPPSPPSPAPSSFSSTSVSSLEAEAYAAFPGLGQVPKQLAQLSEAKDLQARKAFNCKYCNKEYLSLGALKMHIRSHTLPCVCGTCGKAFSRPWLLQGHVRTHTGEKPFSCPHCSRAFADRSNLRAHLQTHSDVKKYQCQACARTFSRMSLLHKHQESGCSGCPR

The target in test [2] is T1, GST-FBXL5 (pGEX-6P-1). The experiment in a line: pull-down; in vitro pull-down with GST-FBXL5, Snail1 T203E against wt (Supplementary Figure S5B); source of the Snail1 proteins not told.
In test [3] the target is T2, endogenous FBXL5 (RWP-1 cells) (human (endogenous in RWP-1)) (UniProt Q9UKA1).
T2 sequence: T1 sequence
In words: co-IP; endogenous proteins in RWP-1 cells treated with MG132 and FAC; IP with rabbit anti-FBXL5 pAb, irrelevant antibody or no antibody as controls; western blot.

In test [4] the target is T3, 3xFlag-FBXL5 (baculovirus) (UniProt Q9UKA1).
T3 sequence: T1 sequence
In words: co-purification of co-expressed proteins; Sf9 cells infected with 6xHis-Skp1, HA-Cullin1, Rbx1 and 3xFlag-FBXL5 baculovirus at ratio 1:2:1:1; purified as in ref. 21; which member was the bait is not told.

Test [5] deals with Snail1-HA (pcDNA3-Snail1-HA) (UniProt Q02085). In words: co-IP; HEK293T transfected with Snail1-HA and Myc-FBXL5, 100 µM FAC and 10 µM MG132; cytoplasmic fraction washed off, nuclear extracts immunoprecipitated with rabbit anti-HA pAb.
The target is the same in test [6]. In words: co-IP; HEK293T transfected with Snail1-HA and Myc-FBXL5; 100 µM FAC (6 h) and 10 µM MG132 (4 h); cell extracts immunoprecipitated with rabbit anti-HA pAb, western blot; also with or without co-transfected Flag-Lats2 (Figure 7C).

No constants are given. Whether binding was seen depends on the method and setting. For some of these results: In cells and extracts the contact can be indirect. Some binding calls cover weakened binding; strength is not graded here. For some of these results: Where a sequence is shown, tags or fusion partners need not be part of it.

In the case of “endogenous Skp1 (HEK293T cells) (from UniProt P63208 1-163)”, the binding result in the test with GST-FBXL5 (pGEX-6P-1) [1] is “binds”. Regarding “Snail1-HA (pcDNA3-Snail1-HA) (from UniProt Q02085 1-264)”, the binding entry with GST-FBXL5 (pGEX-6P-1) [2] and with GST-FBXL5 (pGEX-6P-1) [1] was “binds” in each case. “GFP-Snail1CT (from UniProt Q02085 152-264) (domain or fragment)”: the binding entry with GST-FBXL5 (pGEX-6P-1) [1] is recorded as “binds”.

Consider Twist1-V5 (from UniProt Q15672 1-202), for which the binding result in the test with GST-FBXL5 (pGEX-6P-1) [1] is listed as “no binding”. For “GFP-Snail1 (full-length) (from UniProt Q02085 1-264)”, in the test with GST-FBXL5 (pGEX-6P-1) [1], the binding result is on record as “binds”. As for “endogenous Snail1 (RWP-1 cells) (from UniProt O95863 1-264)”, the binding result in test [3] is “binds”. Take “Snail1 T203E (from UniProt Q02085 1-264)”: the binding result with GST-FBXL5 (pGEX-6P-1) [2] is recorded as “binds”. With “6xHis-T7-Skp1 (baculovirus) (from UniProt P63208 1-163)”, the binding entry in test [4] was “binds”.

B1: GFP-Snail1NT (domain or fragment, UniProt Q02085 1-151)
chain: MPRSFLVRKPSDPRRKPNYSELQDACVEFTFQQPYDQAHLLAAIPPPEVLNPAASLPTLIWDSLLVPQVRPVAWATLPLRESPKAVELTSLSDEDSGKSSQPPSPPSPAPSSFSSTSASSLEAEAFIAFPGLGQLPKQLARLSVAKDPQSR
As to B1, in the test with GST-FBXL5 (pGEX-6P-1) [1], the binding result was “no binding”.

B2: 6xMyc-FBXL5 (pcDNA3-6xMyc-FBXL5) (protein, UniProt Q9UKA1 1-691)
chain: T1 sequence
Consider B2, for which the binding result in test [5] and in test [6] was “binds” in each case.

B3: Zeb1 (protein, UniProt P37275 1-1124)
chain: MADGPRCKRRKQANPRRNNVTNYNTVVETNSDSDDEDKLHIVEEESVTDAADCEGVPEDDLPTDQTVLPGRSSEREGNAKNCWEDDRKEGQEILGPEAQADEAGCTVKDDECESDAENEQNHDPNVEEFLQQQDTAVIFPEAPEEDQRQGTPEASGHDENGTPDAFSQLLTCPYCDRGYKRFTSLKEHIKYRHEKNEDNFSCSLCSYTFAYRTQLERHMTSHKSGRDQRHVTQSGCNRKFKCTECGKAFKYKHHLKEHLRIHSGEKPYECPNCKKRFSHSGSYSSHISSKKCISLIPVNGRPRTGLKTSQCSSPSLSASPGSPTRPQIRQKIENKPLQEQLSVNQIKTEPVDYEFKPIVVASGINCSTPLQNGVFTGGGPLQATSSPQGMVQAVVLPTVGLVSPISINLSDIQNVLKVAVDGNVIRQVLENNQANLASKEQETINASPIQQGGHSVISAISLPLVDQDGTTKIIINYSLEQPSQLQVVPQNLKKENPVATNSCKSEKLPEDLTVKSEKDKSFEGGVNDSTCLLCDDCPGDINALPELKHYDLKQPTQPPPLPAAEAEKPESSVSSATGDGNLSPSQPPLKNLLSLLKAYYALNAQPSAEELSKIADSVNLPLDVVKKWFEKMQAGQISVQSSEPSSPEPGKVNIPAKNNDQPQSANANEPQDSTVNLQSPLKMTNSPVLPVGSTTNGSRSSTPSPSPLNLSSSRNTQGYLYTAEGAQEEPQVEPLDLSLPKQQGELLERSTITSVYQNSVYSVQEEPLNLSCAKKEPQKDSCVTDSEPVVNVIPPSANPINIAIPTVTAQLPTIVAIADQNSVPCLRALAANKQTILIPQVAYTYSTTVSPAVQEPPLKVIQPNGNQDERQDTSSEGVSNVEDQNDSDSTPPKKKMRKTENGMYACDLCDKIFQKSSSLLRHKYEHTGKRPHECGICKKAFKHKHHLIEHMRLHSGEKPYQCDKCGKRFSHSGSYSQHMNHRYSYCKREAEERDSTEQEEAGPEILSNEHVGARASPSQGDSDERESLTREEDEDSEKEEEEEDKEMEELQEEKECEKPQGDEEEEEEEEEVEEEEVEEAENEGEEAKTEGLMKDDRAESQASSLGQKVGESSEQVSEEKTNEA
As to B3, the binding result with GST-FBXL5 (pGEX-6P-1) [1] is listed as “no binding”.
